Assay results from the supplement of paper PMC10369915.
The other results are listed elsewhere or left out. Cut-off read from the data, not from the text of the source: active = 3.2 or more and inactive = the rest. Only a few entries rise above the background.

Tests used:
Assay in all cases: enrichment score (SH2-bound / input frequency) (ratio); bacterial display of known human phosphotyrosine sites (pTyr-Var adds point mutants) read by sequencing; higher = stronger binding; tyrosines were phosphorylated by kinases first
Conditions in all cases: peptide library: pTyr-Var
SHP2 C-SH2 domain E139D = target: SHP2 C-SH2 domain E139D
[1] = target: SHP2 C-SH2 domain wild-type
SHP2 N-SH2 domain L43F = target: SHP2 N-SH2 domain L43F
SHP2 N-SH2 domain T42A = target: SHP2 N-SH2 domain T42A
SHP2 N-SH2 domain T52S = target: SHP2 N-SH2 domain T52S
[2] = target: SHP2 N-SH2 domain wild-type
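Note: displayed peptides selected on beads carrying the immobilized SH2 domain, with library peptides lacking any tyrosine serving as negative controls.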

Binder | enrichment score (SHP2 C-SH2 domain E139D) | enrichment score [1] | enrichment score (SHP2 N-SH2 domain L43F) | enrichment score (SHP2 N-SH2 domain T42A) | enrichment score (SHP2 N-SH2 domain T52S) | enrichment score [2]
GSERRYTREGG [PTPRN2_Y139_S140T] | inactive: 0.452 | inactive: 0.412 | inactive: 0.306 | inactive: 0.353 | inactive: 0.435 | inactive: 0.401
NTGVFYDLFGG [PTPN11_Y63_D61V_YF] | inactive: 1.39 | inactive: 1.1 | inactive: 1.14 | inactive: 1.28 | inactive: 1.06 | inactive: 1.49
NTGFFYDLFGG [PTPN11_Y63_D61Y_YF] | inactive: 2.08 | inactive: 1.87 | inactive: 2.26 | inactive: 2.26 | inactive: 2.45 | inactive: 2.29
GYYDLYGGEKF [PTPN11_Y66_D61G] | inactive: 1.16 | inactive: 1.13 | inactive: 0.848 | inactive: 1.11 | inactive: 0.889 | inactive: 1.01
DFFDLYGGQKF [PTPN11_Y66_E69Q_YF] | inactive: 1.18 | inactive: 0.85 | inactive: 0.901 | inactive: 0.857 | inactive: 0.958 | inactive: 0.837
AELVRYFMEHH [PTPN11_Y80_Q79R_YF] | inactive: 1.46 | inactive: 1.19 | inactive: 1.29 | inactive: 1.34 | inactive: 1.49 | inactive: 1.53
RPQDGYRIVQH [PTPRT_Y1329] | inactive: 0.843 | inactive: 0.635 | inactive: 0.655 | inactive: 0.509 | inactive: 0.573 | inactive: 0.741
NTGNFYDLFGG [PTPN11_Y63_D61N_YF] | inactive: 1 | inactive: 1.04 | inactive: 0.97 | inactive: 1.08 | inactive: 1.06 | inactive: 1.33
RGFRVCFTPDS [PTPRF_Y450_Y450C_YF] | inactive: 0.644 | inactive: 0.77 | inactive: 0.643 | inactive: 0.866 | inactive: 0.716 | inactive: 1.02
AELVPYFMEHH [PTPN11_Y80_Q79P_YF] | inactive: 1.23 | inactive: 1.25 | inactive: 1.2 | inactive: 1.11 | inactive: 1.09 | inactive: 1.24
VKRNRYKDILP [PTPN12_Y64_K61R] | inactive: 0.345 | inactive: 0.336 | inactive: 0.363 | inactive: 0.296 | inactive: 0.242 | inactive: 0.25
AVLVQYFMEHH [PTPN11_Y80_E76V_YF] | active: 4.58 | active: 4.06 | active: 4.04 | active: 3.44 | active: 3.88 | active: 3.76
RGYRVYYTPDS [PTPRF_Y450] | inactive: 1.19 | inactive: 1.19 | inactive: 1.08 | inactive: 0.884 | inactive: 1 | inactive: 0.687
CLMILHRLKER [PTPRR_Y249_Y249H] | inactive: 1.33 | inactive: 1.12 | inactive: 1.12 | inactive: 0.948 | inactive: 1.32 | inactive: 0.938
NTGDYCDLYGG [PTPN11_Y63_Y63C] | inactive: 1 | inactive: 0.951 | inactive: 0.963 | inactive: 0.9 | inactive: 0.9 | inactive: 1.03
NAGDYYDLYGG [PTPN11_Y63_T59A] | inactive: 0.789 | inactive: 0.906 | inactive: 1.04 | inactive: 0.818 | inactive: 1.01 | inactive: 1.07

Binder | enrichment score (SHP2 C-SH2 domain E139D) | enrichment score [1] | enrichment score (SHP2 N-SH2 domain L43F) | enrichment score (SHP2 N-SH2 domain T42A) | enrichment score (SHP2 N-SH2 domain T52S) | enrichment score [2]
DFCDLYGGEKF [PTPN11_Y66_Y63C_YF] | inactive: 1.15 | inactive: 0.987 | inactive: 0.794 | inactive: 0.874 | inactive: 1.19 | inactive: 0.971
NTVDFYDLFGG [PTPN11_Y63_G60V_YF] | inactive: 1.08 | inactive: 1.08 | inactive: 1.23 | inactive: 1.08 | inactive: 0.93 | inactive: 0.896
NTADYYDLYGG [PTPN11_Y63_G60A] | inactive: 1.07 | inactive: 1 | inactive: 1.04 | inactive: 0.71 | inactive: 1.77 | inactive: 1.13
AGLVQYYMEHH [PTPN11_Y80_E76G] | inactive: 1.39 | inactive: 1.42 | inactive: 1.76 | inactive: 1.39 | inactive: 2.94 | inactive: 1.37
HKGASYAFRLS [PTPRD_Y891_V892A] | inactive: 0.879 | inactive: 0.906 | inactive: 0.804 | inactive: 0.745 | inactive: 0.898 | inactive: 1
DYYDLYGGEKK [PTPN11_Y66_F71K] | inactive: 1.3 | inactive: 0.907 | inactive: 0.797 | inactive: 0.483 | inactive: 0.716 | inactive: 0.926
VYYDLYGGEKF [PTPN11_Y66_D61V] | inactive: 1.72 | inactive: 1.64 | inactive: 1.84 | inactive: 1.65 | inactive: 1.62 | inactive: 1.73
WEPFGYAVTRC [PTPRT_Y412] | inactive: 0.591 | inactive: 0.737 | inactive: 0.671 | inactive: 0.536 | inactive: 0.603 | inactive: 0.679
AELVPYYMEHH [PTPN11_Y80_Q79P] | inactive: 1.6 | inactive: 1.44 | inactive: 1.37 | inactive: 1 | inactive: 1.19 | inactive: 1.07
DFFDLYGGEKK [PTPN11_Y66_F71K_YF] | inactive: 0.975 | inactive: 1.14 | inactive: 0.898 | inactive: 1.21 | inactive: 1.21 | inactive: 0.895
DFFDLYGGEKF [PTPN11_Y66_YF] | inactive: 2.05 | inactive: 1.16 | inactive: 1.55 | inactive: 1.2 | inactive: 1.51 | inactive: 1.09
GFRVFYTPDSR [PTPRF_Y451_YF] | inactive: 1.38 | inactive: 0.983 | inactive: 0.918 | inactive: 0.982 | inactive: 1.41 | inactive: 1.16
GFRVCYTPDSR [PTPRF_Y451_Y450C_YF] | inactive: 0.673 | inactive: 0.82 | inactive: 0.75 | inactive: 0.557 | inactive: 0.558 | inactive: 0.937
LPQDGYRIVQH [PTPRT_Y1329_R1324L] | inactive: 0.655 | inactive: 0.82 | inactive: 0.721 | inactive: 0.663 | inactive: 0.764 | inactive: 0.849
VFFDLYGGEKF [PTPN11_Y66_D61V_YF] | inactive: 1.3 | inactive: 1.11 | inactive: 1.07 | inactive: 1.27 | inactive: 1.36 | inactive: 1.42
YYYDLYGGEKF [PTPN11_Y66_D61Y] | inactive: 1.89 | inactive: 1.83 | inactive: 1.63 | inactive: 1.36 | inactive: 1.57 | inactive: 1.65
